Among all 310,000 compounds or so, about 2,200 (0.71%) showed an effect of 50% or more. The effect is printed as a negative number. Some of the results follow.
Each compound was assayed against human ether-à-go-go-related gene (hERG) potassium channel (human, UniProt Q12809) (assay: primary screen, population patch clamp on CHO cells stably expressing hERG).
human ether-à-go-go-related gene (hERG) potassium channel, sequence (Q12809 whole entry, looked up): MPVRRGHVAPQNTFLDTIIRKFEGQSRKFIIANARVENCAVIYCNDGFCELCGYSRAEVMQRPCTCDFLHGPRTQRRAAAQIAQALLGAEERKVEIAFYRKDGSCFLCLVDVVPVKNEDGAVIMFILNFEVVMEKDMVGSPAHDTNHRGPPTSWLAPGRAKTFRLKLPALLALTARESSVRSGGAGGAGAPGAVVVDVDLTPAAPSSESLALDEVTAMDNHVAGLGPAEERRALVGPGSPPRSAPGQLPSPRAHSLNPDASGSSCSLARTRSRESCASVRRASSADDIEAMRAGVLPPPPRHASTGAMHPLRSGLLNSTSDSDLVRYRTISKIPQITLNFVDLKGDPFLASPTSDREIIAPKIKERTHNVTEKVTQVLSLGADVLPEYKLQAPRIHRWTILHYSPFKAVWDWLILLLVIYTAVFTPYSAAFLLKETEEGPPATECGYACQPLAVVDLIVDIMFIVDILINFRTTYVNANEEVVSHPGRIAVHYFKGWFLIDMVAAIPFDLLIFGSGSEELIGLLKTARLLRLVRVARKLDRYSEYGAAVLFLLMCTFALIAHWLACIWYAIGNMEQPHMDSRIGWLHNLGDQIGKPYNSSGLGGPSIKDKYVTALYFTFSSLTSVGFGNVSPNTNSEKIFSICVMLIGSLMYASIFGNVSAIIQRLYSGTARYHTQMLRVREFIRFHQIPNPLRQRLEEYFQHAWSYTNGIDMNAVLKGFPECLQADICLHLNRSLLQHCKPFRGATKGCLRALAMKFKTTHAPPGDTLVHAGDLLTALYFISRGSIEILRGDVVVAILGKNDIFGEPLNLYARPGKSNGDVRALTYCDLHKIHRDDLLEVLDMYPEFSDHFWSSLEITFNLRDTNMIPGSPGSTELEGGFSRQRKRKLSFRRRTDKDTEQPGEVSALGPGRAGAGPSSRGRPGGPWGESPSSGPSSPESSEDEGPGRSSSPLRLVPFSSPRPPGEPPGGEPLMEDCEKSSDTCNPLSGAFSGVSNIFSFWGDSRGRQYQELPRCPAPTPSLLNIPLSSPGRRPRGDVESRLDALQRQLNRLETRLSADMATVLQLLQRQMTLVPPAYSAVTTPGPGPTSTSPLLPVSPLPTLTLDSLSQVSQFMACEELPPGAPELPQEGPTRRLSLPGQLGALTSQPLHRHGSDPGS

Compound	hERG current change (%, negative = inhibition) at 1uM
O=C(Nc1ccc2c(c1)OCO2)Nc1ccc(Br)cn1	1.68%
C=C(C)C(=O)Nc1cccc(C2=NOC3(C2)C[C@@H](C(N)=O)N(C(=O)/C(C)=C/C)C3)c1 (stereo partly shown)	20.1%
COc1ccc(S(=O)(=O)N2CCOCC2)cc1NC(=O)c1ccccc1-c1ccc(C(F)(F)F)cc1	4.2%
COc1ccc(OCC(=O)Nc2ccccc2C(=O)N2CCCC2)cc1	-2.47%
O=C(/C=C/c1ccc(Br)o1)OCc1nc2ccsc2c(=O)[nH]1	15.5%
CCOC(=O)[C@H]1[C@H]2COc3ccccc3[C@@H]2N2C(=O)CNC(=O)[C@@]12C	17.6%
Cc1ccc(S(=O)(=O)NCC(=O)NCC2CCCCC2)cc1C	13.9%
Cc1ccc(C)c(N2CCN(C(=O)CCC(=O)Nc3nnc(C(F)(F)F)s3)CC2)c1	15%
COC(=O)/C(C#N)=C/c1ccc(C)o1	3.28%
COc1cc(/C=C/c2cccc[n+]2C)ccc1OCC(=O)Nc1ccccc1.[I-]	17.5%
CCC(CC)C(=O)N1CC(=O)Nc2ccc(C)cc2C1c1ccccc1 (stereo not shown)	-6.45%
CCCCn1c(N)c(N(CC(C)C)C(=O)c2oc3ccc(OCC)cc3c2C)c(=O)[nH]c1=O	12.5%
COc1ccc(CCN(CC(=O)NC(C)(C)C)C(=O)Cn2nnc(-c3ccc(C)o3)n2)cc1OC	16.1%
CC1Oc2ccccc2N(CC(=O)NCCN2CCOCC2)C1=O (stereo not shown)	0.595%
CCOC(=O)c1c(N)sn(-c2ccccc2C)c1=S	-9.41%
COc1ccc(Nc2nc3c(C)cccn3c(=O)c2C=NCc2ccccc2)cc1	10.5%
C=CCn1c(SCC(=O)N(CC)C2CCS(=O)(=O)C2)nc2cc(C(=O)O)ccc2c1=O (stereo not shown)	16.4%
Nc1nc(CN2CCCCCC2)nc(Nc2ccc(F)cc2)n1	-48.8%
CCn1ncc(-c2csc(N)n2)c1C	5.96%
O=C(O)Cn1nc(C(F)(F)F)c2c1CCC2	20.5%
Cn1c(=O)c2c(nc(N3CCC(C(N)=O)CC3)n2CCSc2nc3ccccc3s2)n(C)c1=O	6.6%
O=C1CS/C(=C\S(=O)(=O)c2ccc(Cl)cc2)N1	6.44%
COc1cc(/C=N\NC(=O)c2ccc(Cn3cc(Br)c([N+](=O)[O-])n3)o2)cc(OC)c1O	7.61%
O=C(Cn1nc(C(F)F)cc1C(F)F)N/N=C/c1ccc2c(c1)OCO2	22.5%
CCN(Cc1ccccc1)C(=O)c1ccc(Cl)cc1[N+](=O)[O-]	7.7%
Cc1cc(C(=O)CSc2nnc(N)s2)c(C)n1Cc1ccco1	31%
CCOC(=O)c1cc(-c2ccccc2)sc1NC(=O)CSc1nnnn1C	7.23%
CCN(CC)c1ncnc2c1sc1nc(C)cc(C)c12	4.82%

Compound	hERG current change (%, negative = inhibition) at 1uM
Cc1ccc(S(=O)(=O)CCC(=O)Oc2ccc3c(C)cc(=O)oc3c2)cc1	8.87%
CCCCN(C)C(=S)Nc1ccc2nc3n(c(=O)c2c1)CCCCC3	-8.53%
COc1cc(/C=C/C(=O)c2cccc([N+](=O)[O-])c2)cc(OC)c1OC	11%
Cc1ccc2oc(-c3ccccc3C(=O)O)cc(=O)c2c1	2.7%
Cc1ccc(CNC(=O)CSCc2cccc(F)c2)cc1	6.87%
C=CCn1c(CNC(=O)c2cccs2)nnc1SCC(=O)c1ccc(Br)cc1	-9.68%
Cc1cccc(NC(=O)c2ccc(S(=O)(=O)N(C)C)cc2)n1	2.17%
Cc1ccc(NC(=O)ON=C2CCCC2)cc1	5.05%
Nc1nnc(Sc2ccc(Cl)cc2[N+](=O)[O-])s1	11.7%
CN1CCNC(=O)C1CC(=O)N1CC=C(c2ccc(F)cc2)CC1 (stereo not shown)	16.2%
CC(NCc1ccc([N+](=O)[O-])cc1)C1COc2ccccc2O1.O=C(O)C(=O)O (stereo not shown)	-34.4%
CCn1ccc(C(=O)Oc2ccc(Cl)cc2)n1	7.05%
O=C(Nc1cccc(Cl)c1)C1CCCN(S(=O)(=O)c2ccc(F)cc2)C1 (stereo not shown)	-3.44%
CCOc1ccccc1N(CC(=O)NC1CCCCC1)C(=O)CCC(=O)Nc1cc(C)ccn1	9.49%
COC(=O)c1ccc(NC(=O)CSc2nnc(Cc3cccn3C)n2-c2ccc(F)cc2)cc1	-1.64%
CCc1nn2cc(C(=O)c3ccccc3O)cnc2c1-c1ccc(F)cc1	3.34%
COc1ccc(-c2nnc3c4ccccc4c(C)nn23)cc1S(=O)(=O)N1CCN(CCO)CC1	4.64%
COC(=O)[C@H](Cc1ccccc1)NC(=O)NCCc1ccc(S(N)(=O)=O)cc1	14.7%
CNC(=O)Oc1cccc(-c2cn3cc(Cl)ccc3n2)c1	0.907%
CN(C)S(=O)(=O)N1CCc2ccccc21	18.2%
Cc1ccc(C)c(C(=O)Nc2cc(C)nn2-c2nc(C)cc(C)n2)c1	10.8%
Cc1cccc2sc(N(CCN3CCOCC3)C(=O)CCS(=O)(=O)c3ccccc3)nc12.Cl	6.94%
COc1ccc(N(C(=O)c2ccncc2)S(=O)(=O)c2ccc3c4c(cccc24)C(=O)N3C)cc1	7.84%
Clc1ccc(-c2nnc(N3CCOCC3)o2)cc1	7.41%
O=C1Nc2ccccc2/C1=C/c1nc2ccccc2c(=O)n1-c1ccc(O)cc1	12.2%
COc1ccccc1NS(=O)(=O)c1cc([N+](=O)[O-])ccc1N/N=C/c1sc(N2CCOCC2)nc1-c1ccccc1	21.2%
Cc1cc(C(=O)CSc2nnc(-c3cccs3)o2)c(C)n1-c1ccccc1	15.5%
